From the supplement of paper PMC11417369
The list shows a part of the results.

tested on: PfSIP2 AP2 domain 1 (GST-tagged); assay: gcPBM binding intensity (ln(normalized median fluorescence intensity)); higher = stronger DNA binding
In short: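 GST-tagged P. falciparum DNA-binding domains, expressed in E. coli (about 25 μg on average), were applied for 1 h to an Agilent 4 × 180k array of primer-extended double-stranded 36-bp intergenic genomic probes plus negative controls. The binding buffer was 1× PBS with 1% milk, 0.2 mg/ml BSA, 0.5% salmon testes DNA and 0.03% Triton X-100. Bound protein was detected with Alexa488 anti-GST antibody and scanned at 488 nm. Binding intensity is the highest Masliner-normalised natural-log median intensity across replicate spots of either probe orientation.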

Sequence | gcPBM binding intensity (ln)
TAAATGAAAACCATTAGTACTTATACTGATAAATGT [XGTACX_site763] | 6.69
TATATCTTAATATACACACACACATATATATATATA [CACACA_site4968] | 9.18
TATATAAATATATATACACACAAAAAAAAAAAAAAA [CACACA_site1406] | 7.09
CATATAAAAAATATGGTGCAGTTTTTTTTTTTTTTT | 10.4
TATATATATAATGTTTGTACATATTAAATATATATG [XGTACX_site407] | 8.3
AAAAAAAGTTGATACTGTACTCGTGCATTATGAATA [XGTACX_site5558] | 7.08
CTTATTAAAATTATTTGTACACAATATGTAAAAGTA [XGTACX_site7237] | 6.99
TAATTAAAATTATCTACACACCTTTATAAATATATA [CACACA_site3928] | 6.83
AGGTATTTTCTTGTGACACACATATATATATATATT [CACACA_site2220] | 7.37
TTTTGCAATAATGTTGCACACTAAATAGTCATATAT [CACACA_site7977] | 7.61
TTTATATTGATATATACACACATATACATCCTATTT [CACACA_site7442] | 6.94
ATTATTGTTGTTCATGTACACACTATAATAAAAGCA [CACACA_site4168] | 7.37
ATTAATTATTTCAATGCATGTGAACACTATATATAA [TGCATGCA_site600] | 7.13
ATATATATATATATATGTACATATTTCTCCATTTTT [XGTACX_site2869] | 9.68
CATATTTTTATAAATTGTACGTATATTATATATATA [XGTACX_site1816] | 7.99
GCATTGTCCATGCGCACACACTACTAGAATAATATG [CACACA_site5932] | 7.48
AAACCGTGGGAGCACACACACACACCGACACATATA [CACACA_site4338] | 6.99
TGCAATTGTAAAGGCGCACACATATATATATATATA [CACACA_site4894] | 9.4
GTTTTTTATAATTGTAGTACAAGAAGATATTTTTAT [XGTACX_site5443] | 7.44
CCATCTAAACACAACTCGAGTTGGATGTGTGAACTT [XGTACX_negctrl_site83] | 6.63
ATCAAAAGAAAACACACACACATACAGATATATATA [CACACA_site5974] | 7.24
TCCATTTATAAATTAGCATGCAATCTATGTCTGATA [TGCATGCA_site1045] | 6.81

Sequence | gcPBM binding intensity (ln)
AATTAATGGGTACATACACACATATATACCTACATA [CACACA_site4572] | 7.05
ATATATCAATATAAAAGTACAAACAAAAAATAATCA [XGTACX_site7559] | 7.06
GATATATACTCCATCACACACCAAAAAGAAAAAAGA [CACACA_site7242] | 7.34
CACAGACACGGACACACACACACACCCATATATATA [CACACA_site4354] | 7.42
ATACAAGAATTAAACACACACAAAATATAAATTCTT [CACACA_site3005] | 6.97
AGCAACCTGAAAAAATTACTCTTTCTTAAACAAATT [XGTACX_negctrl_site266] | 7.02
ACCTGTAAAAATGTTTATATATATATATATATATAT [CACACA_negctrl_site1500] | 9.8
TTAAGGATTAAGGTGTGTACATATAAATATTATATA [XGTACX_site7532] | 7.17
AAAAAAAAAAAAAATTGTACATAATAAAAATATGGA [XGTACX_site3189] | 7
TGTTTATTCTTTAAATATTATTCAAATACTACAAGT [CACACA_negctrl_site746] | 7.04
CGGCACATTATATATACACACATATAAATAAATACA [CACACA_site4477] | 7.2
TATATATATAAGTGCACACTGAACCAAGAAAATTAT [CACACA_site3008] | 10.5
GGATTGATAAGTGGTACACACATATAGATTATAGAT [CACACA_site7367] | 7.27
AATATTAAATGAAAAAGTACAAACAGTCCTATATTA [XGTACX_site1926] | 7
ATTTATATAAAGAATGTACACACAGAAATGCACCCA [CACACA_site8715] | 11.8
CGTATGCACAAATTATGTACTTATATATATATATAT [XGTACX_site2348] | 9.6
AAAAAAAAAAAACATACACACAAATAAATACATACA [CACACA_site6073] | 6.98
TAAATATATATATGTGTGCACTTCTTCATTTTAATA [GTGCAC_site9537] | 9.97
TTTTGTACAAAAATAATGCACACTATATCAAGTTTT [CACACA_site3595] | 7.48
ATATAAAAAGGAAAAAGTACAAAAAAATGTTTGTGA [XGTACX_site8552] | 6.82
AAGAAAATATATTCACATGAAGAATTAAAATAAAAC [TGCATGCA_negctrl_site119] | 7.14
TATGTGCCAAAACACACACACATATATATATATATA [CACACA_site469] | 9.89
